26 molecules from the supplement of paper PMC8007513 can be followed below.

The test system of the assay is Trichoderma virens ATCC 9645. Nature of the assay: growth yield (OD600) with compound + IPBC relative to untreated control; higher = less growth inhibition. The following applies: compound concentration: 100 uM, IPBC concentration: 200 ng/ml. The method, boiled down: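 Trichoderma virens ATCC 9645 spores at 15,000 spores ml^−1 in potato dextrose broth were exposed in 96-well plates to library compounds at 100 μM final, with or without a biocide at 200 ng ml^−1. After growth at 30 °C, OD600 was read at 40 h and 72 h. Values are growth relative to the control without either agent, averaged over duplicate screens.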

Structures can show the parent of a compound that is named as a salt. ± gives the standard error. Among all 1,300 compounds or so, about 130 (10%) showed an effect of 50% or more. The list shows a part of the results, in another mix than the full data.

On to `CC(=O)Nc1nnc(S(N)(=O)=O)s1` [Acetazolamide] + CCCCNC(=O)OCC#CI [3-iodo-2-propynyl butylcarbamate (IPBC)], for which the growth yield came out at 85.6 ± 2.4% (40 h) and 88.62 ± 0.73% (72 h).

For the molecule `Cc1cc2cc3c(C)cc(=O)oc3c(C)c2o1` [Trioxsalen] + CCCCNC(=O)OCC#CI [3-iodo-2-propynyl butylcarbamate (IPBC)], the growth yield (40 h) came to 61.3 ± 0.64% and the growth yield (72 h) is 86.2 ± 1.9%.

In the case of `C[C@]12CC[C@@H]3c4ccc(O)cc4C[C@@H](CCCCCCCCC[S+]([O-])CCCC(F)(F)C(F)(F)F)[C@H]3[C@@H]1CC[C@@H]2O` (some centres not stated) [Fulvestrant] + CCCCNC(=O)OCC#CI [3-iodo-2-propynyl butylcarbamate (IPBC)], the growth yield by setting is: (40 h) 106.6 ± 0.48%; (72 h) 105 ± 1.7%.

In the case of `CO/N=C(\C(=O)N[C@@H]1C(=O)N2C(C(=O)O)=C(COC(C)=O)CS[C@H]12)c1csc(N)n1` [Cefotaxime sodium salt] + CCCCNC(=O)OCC#CI [3-iodo-2-propynyl butylcarbamate (IPBC)], the growth yield is, setting by setting: (40 h) 86.2 ± 4.3%; (72 h) 94.4 ± 5.5%.

As to `CN1CCN(C(=O)O[C@H]2c3nccnc3C(=O)N2c2ccc(Cl)cn2)CC1` [Eszopiclone] + CCCCNC(=O)OCC#CI [3-iodo-2-propynyl butylcarbamate (IPBC)], the growth yield is, setting by setting: (40 h) 88.6 ± 7.3%; (72 h) 91.2 ± 1.9%.

Regarding `CN(C)CCC(c1ccc(Br)cc1)c1ccccn1` (configuration not stated) [Brompheniramine maleate] + CCCCNC(=O)OCC#CI [3-iodo-2-propynyl butylcarbamate (IPBC)], the growth yield reads like this: (40 h) 74.97 ± 0.32%; (72 h) 86.31 ± 0.32%.

Regarding `c1ccc(-c2ccc(C(c3ccccc3)n3ccnc3)cc2)cc1` (configuration not stated) [Bifonazole] + CCCCNC(=O)OCC#CI [3-iodo-2-propynyl butylcarbamate (IPBC)], the growth yield is, setting by setting: (40 h) 4.92 ± 0.16%; (72 h) 3.25 ± 0.1%.

`Oc1c(Cl)cc(Cl)c2cccnc12` [Chloroxine] + CCCCNC(=O)OCC#CI [3-iodo-2-propynyl butylcarbamate (IPBC)]: the growth yield (40 h) is 1.27 ± 0.95% and the growth yield (72 h) was determined as 1.89 ± 0.21%.

In the case of `O=C1CC[C@@H](C(=O)N2CSC[C@H]2C(=O)O)N1` [Pidotimod] + CCCCNC(=O)OCC#CI [3-iodo-2-propynyl butylcarbamate (IPBC)], the growth yield was found to be 88 ± 0.32% (40 h) and 88.4 ± 1.8% (72 h).

As to `CC(=O)OC[C@H]1O[C@@H]([S-])[C@H](OC(C)=O)[C@@H](OC(C)=O)[C@@H]1OC(C)=O.CCP(CC)CC.[Au+]` [Auranofin] + CCCCNC(=O)OCC#CI [3-iodo-2-propynyl butylcarbamate (IPBC)], the growth yield (40 h) came to 23.2 ± 1.3% and the growth yield (72 h) is 29.7 ± 2.4%.

For `CCCCc1oc2ccc(NS(C)(=O)=O)cc2c1C(=O)c1ccc(OCCCN(CCCC)CCCC)cc1` [Dronedarone hydrochloride] + CCCCNC(=O)OCC#CI [3-iodo-2-propynyl butylcarbamate (IPBC)], the growth yield reads like this: (40 h) 6.51 ± 0.16%; (72 h) 3.25 ± 0.32%.

On to `CCC1(c2ccccc2)C(=O)NCNC1=O` [Primidone] + CCCCNC(=O)OCC#CI [3-iodo-2-propynyl butylcarbamate (IPBC)], for which the growth yield is 86.25 ± 0.79% (40 h) and 89.25 ± 0.52% (72 h).

In the case of `Nc1ncnc2c1ncn2[C@@H]1O[C@H](CO)[C@@H](O)[C@@H]1O` [Vidarabine] + CCCCNC(=O)OCC#CI [3-iodo-2-propynyl butylcarbamate (IPBC)], the growth yield is, setting by setting: (40 h) 121 ± 11%; (72 h) 109 ± 7.3%.

`O=C1CC[C@@]2(O)[C@H]3Cc4ccc(O)c5c4[C@@]2(CCN3CC2CC2)[C@H]1O5` [Naltrexone hydrochloride dihydrate] + CCCCNC(=O)OCC#CI [3-iodo-2-propynyl butylcarbamate (IPBC)]: the growth yield stood at 85.6 ± 5.6% (40 h) and 91.5 ± 6.7% (72 h).

`CCOc1nc2cccc(C(=O)O)c2n1Cc1ccc(-c2ccccc2-c2nnn[nH]2)cc1` [Candesartan] + CCCCNC(=O)OCC#CI [3-iodo-2-propynyl butylcarbamate (IPBC)]: the growth yield came out at 83.9 ± 1.9% (40 h) and 94.9 ± 2.6% (72 h).

On to `C[C@@](Cc1ccc(O)c(O)c1)(NN)C(=O)O` [Carbidopa] + CCCCNC(=O)OCC#CI [3-iodo-2-propynyl butylcarbamate (IPBC)], for which the growth yield reads like this: (40 h) 79.26 ± 0.16%; (72 h) 86.1 ± 1.1%.

In the case of `Cn1c(=O)c2c(ncn2CC2OCCO2)n(C)c1=O` [Doxofylline] + CCCCNC(=O)OCC#CI [3-iodo-2-propynyl butylcarbamate (IPBC)], the growth yield reads like this: (40 h) 92.4 ± 6.7%; (72 h) 95.2 ± 5%.

As for `CN1CCN(CC(=O)N2c3ccccc3C(=O)Nc3cccnc32)CC1` [Pirenzepine dihydrochloride] + CCCCNC(=O)OCC#CI [3-iodo-2-propynyl butylcarbamate (IPBC)], the growth yield was 95.3 ± 7.3% (40 h) and 98.8 ± 5.9% (72 h).

For the molecule `CC(=O)N(CC(O)CO)c1c(I)c(C(=O)NCC(O)CO)c(I)c(C(=O)NCC(O)CO)c1I` (configuration not stated) [Iohexol] + CCCCNC(=O)OCC#CI [3-iodo-2-propynyl butylcarbamate (IPBC)], the growth yield came to 91.2 ± 8.3% (40 h) and 93.7 ± 5.6% (72 h).

With `CN(CCCCCCCCCCN(C)C(=O)Oc1cccc([N+](C)(C)C)c1)C(=O)Oc1cccc([N+](C)(C)C)c1` [Demecarium bromide] + CCCCNC(=O)OCC#CI [3-iodo-2-propynyl butylcarbamate (IPBC)], the growth yield stood at 3.97 ± 0.16% (40 h) and 2.73% (72 h).

For `COC(=O)Nc1nc2cc(Sc3ccccc3)ccc2[nH]1` [Fenbendazole] + CCCCNC(=O)OCC#CI [3-iodo-2-propynyl butylcarbamate (IPBC)], the growth yield was 82.8 ± 1.1% (40 h) and 93.3 ± 2.7% (72 h).

As for `CN(C)C(=N)NC(=N)N` [Metformin hydrochloride] + CCCCNC(=O)OCC#CI [3-iodo-2-propynyl butylcarbamate (IPBC)], the growth yield stood at 85.9 ± 4.9% (40 h) and 88 ± 2.2% (72 h).

In the case of `CC=CC(=O)N(CC)c1ccccc1C` [Crotamiton] + CCCCNC(=O)OCC#CI [3-iodo-2-propynyl butylcarbamate (IPBC)], the growth yield reads like this: (40 h) 98.8 ± 5.1%; (72 h) 102 ± 2.2%.

On to `CNCCc1ccccn1` [Betahistine mesylate] + CCCCNC(=O)OCC#CI [3-iodo-2-propynyl butylcarbamate (IPBC)], for which the growth yield by setting is: (40 h) 88 ± 8.3%; (72 h) 92 ± 5.6%.

Take `Nc1nc2c(ncn2COC(CO)CO)c(=O)[nH]1` [Ganciclovir] + CCCCNC(=O)OCC#CI [3-iodo-2-propynyl butylcarbamate (IPBC)]: the growth yield came out at 99.9 ± 16% (40 h) and 98.1 ± 10% (72 h).

`CO[C@H]1/C=C/O[C@@]2(C)Oc3c(C)c(O)c4c(O)c(c5c(nc6cc(C)ccn65)c4c3C2=O)NC(=O)/C(C)=C\C=C\[C@H](C)[C@H](O)[C@@H](C)[C@@H](O)[C@@H](C)[C@H](OC(C)=O)[C@@H]1C` [Rifaximin] + CCCCNC(=O)OCC#CI [3-iodo-2-propynyl butylcarbamate (IPBC)]: the growth yield amounted to 126 ± 8.1% (40 h) and 119 ± 6.5% (72 h).
